In publication PMC4336329 (PLoS ONE, 2015):
Among all 310,000 compounds or so, about 14,000 (4.5%) showed an effect of 50% or more. The effect is printed as a negative number. This is one part of the list.

What follows are molecules tested against human ether-à-go-go-related gene (hERG) potassium channel (human, UniProt Q12809) (assay: primary screen, population patch clamp on CHO cells stably expressing hERG).
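Also: peak tail current of the secondary pulse compared with the same well before compound.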

human ether-à-go-go-related gene (hERG) potassium channel, sequence (Q12809 whole entry, looked up): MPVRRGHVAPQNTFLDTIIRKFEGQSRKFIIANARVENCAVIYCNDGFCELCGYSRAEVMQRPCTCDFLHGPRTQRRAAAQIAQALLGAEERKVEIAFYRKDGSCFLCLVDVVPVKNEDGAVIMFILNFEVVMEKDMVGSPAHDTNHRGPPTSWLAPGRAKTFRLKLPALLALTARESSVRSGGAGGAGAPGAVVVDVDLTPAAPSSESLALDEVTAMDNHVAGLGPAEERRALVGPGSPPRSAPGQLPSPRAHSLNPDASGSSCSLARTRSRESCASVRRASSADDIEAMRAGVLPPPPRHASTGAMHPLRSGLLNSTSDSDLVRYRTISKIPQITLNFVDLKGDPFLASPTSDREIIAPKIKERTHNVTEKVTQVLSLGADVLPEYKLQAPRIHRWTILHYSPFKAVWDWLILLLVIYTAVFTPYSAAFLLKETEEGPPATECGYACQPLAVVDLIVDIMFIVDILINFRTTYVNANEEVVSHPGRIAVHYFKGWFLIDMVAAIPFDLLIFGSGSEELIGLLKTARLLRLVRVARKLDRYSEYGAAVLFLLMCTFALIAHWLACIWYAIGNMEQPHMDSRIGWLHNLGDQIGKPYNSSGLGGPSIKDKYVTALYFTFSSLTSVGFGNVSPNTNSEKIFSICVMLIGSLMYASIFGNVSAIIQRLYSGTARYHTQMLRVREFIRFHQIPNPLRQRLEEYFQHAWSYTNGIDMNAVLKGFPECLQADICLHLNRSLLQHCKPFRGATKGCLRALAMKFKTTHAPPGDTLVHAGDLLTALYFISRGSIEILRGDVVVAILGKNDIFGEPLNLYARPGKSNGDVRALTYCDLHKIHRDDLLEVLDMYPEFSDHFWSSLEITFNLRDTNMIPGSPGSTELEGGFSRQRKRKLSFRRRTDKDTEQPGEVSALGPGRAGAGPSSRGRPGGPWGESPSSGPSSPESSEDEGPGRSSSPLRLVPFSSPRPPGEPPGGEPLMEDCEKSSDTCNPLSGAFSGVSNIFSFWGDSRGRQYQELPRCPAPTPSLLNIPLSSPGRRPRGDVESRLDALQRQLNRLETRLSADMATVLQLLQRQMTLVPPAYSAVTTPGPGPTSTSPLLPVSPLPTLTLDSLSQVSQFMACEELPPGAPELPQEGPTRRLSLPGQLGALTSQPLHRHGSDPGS

Compound	hERG current change (%, negative = inhibition) at 10uM [%]
CC(C)=NNc1nc(-c2ccccc2)c(C)s1	11.9
CC1CCN(C(=O)c2[nH]cnc2C(=O)NCC(=O)OC(C)(C)C)CC1	6.94
Cc1ccc(C)c(Cn2c3ccccc3c3cnn(CC(=O)NCCCN4CCCCC4)c(=O)c32)c1	-71.9
CCOc1cc(C(=O)OC(C)C(=O)Nc2ncc(Cl)cc2Cl)ccc1OCC(=O)N1CCOCC1 (centres unmarked)	2.21
FCCN(CCF)c1cccc(Cl)c1	13
O=C(CSc1ccc(-c2cccnc2)nn1)Nc1ccc(Br)cc1	-35.9
Cn1cc(Br)c(C(=O)N2CCc3ccccc32)n1	-7.56
Cc1cc(C)cc(-c2nnc(SCC(=O)NCc3cccs3)o2)c1	4.21
CC(C)(C)c1ccc(OCCC(=O)NNC(=O)c2ccncc2)cc1	-6.47
Cc1nnc(NC(=O)c2ccc(-c3ccc(Cl)cc3)o2)s1	2.72
CC1CCCC(C)N1C(=O)CSc1nnc(-c2c[nH]c3ccccc23)o1 (centres unmarked)	-4.87
CCSc1nnc(NC(=O)c2cccc(S(=O)(=O)N(C)c3ccccc3)c2)s1	3.54
Cc1ccc(CN2CCN(Cc3ccc(O)cc3)CC2CCO)o1 (centres unmarked)	-7.85
Cc1ccc(CCNC(=O)CCS(=O)(=O)c2ccc3c(c2)oc(=O)n3C)cc1	13.8
COc1ccc(N2CC(C(=O)Nc3nc4ccccc4s3)CC2=O)cc1 (centres unmarked)	-48.9
COc1ccc(Cl)cc1NC(=O)C/C(C)=N/NC(=O)CCc1ccccc1	-14
CCC(OC(=O)CN1C(=O)C(=O)c2ccccc21)C(=O)Nc1ccc(S(N)(=O)=O)cc1 (centres unmarked)	11.3
COc1cc(C(=O)OCC(=O)NC2CCCCC2)cc2c1OCCO2	17.3
O=C1CCC(C(=O)N2CCOCC2)CN1Cc1ccc(Cl)cc1 (centres unmarked)	2.62
Cc1nn(-c2ccccc2)c(C)c1/C=N/NC(=O)CSc1nc2ccccc2c(=O)n1-c1ccc(Br)cc1	3.58
COc1ccc(C2CC(c3ccccc3)=NN2C(=O)COC(=O)c2cc(S(=O)(=O)N3CCOCC3)ccc2F)cc1 (centres unmarked)	-5.62
O=C1NCCN2CCCC12 (centres unmarked)	6.78
O=[N+]([O-])c1ccccc1CNC1CCCc2ccccc21 (centres unmarked)	-5.95

Compound	hERG current change (%, negative = inhibition) at 10uM [%]
COc1ccc(/C=N/NC(=O)CCn2nc(C)cc2C)cc1O	17.9
O=S(=O)(c1ccccc1)c1nc(-c2ccccc2)oc1N1CCCCC1	-12.8
COc1ccc2[nH]c(C(=O)O)c(CCNC(C)=O)c2c1	9.27
Cc1cc(C(=O)NC(=S)Nc2cccc(NC(=O)C(C)C)c2)ccc1[N+](=O)[O-]	3.95
O=C1CC(c2ccccc2)CC(O)=C1C=Nc1ccc(Cl)cc1 (centres unmarked)	9.76
Cc1cc(C)cc(-n2nnnc2SCC(=O)N2CCOCC2)c1	-5.2
N#C/C(=N\Nc1ccc(F)cc1)C(=N)N1CCCCC1	-21.6
O=C(O)COc1c(Cl)cc(/C=C2/NC(=O)NC2=O)cc1Br	8.42
CCn1cc(S(=O)(=O)N2CCN(Cc3ccc(F)cc3)CC2)cn1	-7.27
Cc1ccnc(N=Cc2nc(-c3ccccc3Br)oc2O)c1	-2.4
CCOC(=O)c1c(C)n(-c2ccc(C)cc2)c2ccc(OCC(O)CNCC3CCCO3)cc12.O=C(O)C(=O)O (centres unmarked)	-47.7
O=C(COC(=O)c1ccccc1Br)NCCc1ccc(F)cc1	-9.01
C/C(=N/NC(=O)c1ccoc1C)c1ccc(NC(=O)C2CCCC2)cc1	10.8
CC(C)(C)C(=O)O/N=C(\N)COc1cccc(Cl)c1	10.8
COc1ccccc1OCC(=O)NCCNC(=O)COc1ccccc1OC	3.06
N#CCC(CNc1ncc(C(F)(F)F)cc1Cl)OC(=O)c1c(F)cccc1F (centres unmarked)	-1.98
Cc1cccc(CNc2ccc(C(CC(N)=O)NC(=O)c3ccccc3)cc2[N+](=O)[O-])c1 (centres unmarked)	-2.08
Cc1ccc(S(=O)(=O)NC(CC(C)C)C(=O)N2CCN(C/C=C/c3ccccc3)CC2)cc1 (centres unmarked)	-21.3
O=C1NC(=O)C(CCc2ccccn2)(Cc2ccc3c(c2)OCO3)C(=O)N1CCc1ccccc1 (centres unmarked)	3.03
CC(=O)c1ccc(NC(=S)N(C)C2CCN(C)CC2)cc1	-4.16
CCN(CC)Cc1cc2ccccc2c2c1COC2	-44.1
CCc1ccc2[nH]c(=O)c(C3C(C#N)=C(N)Oc4c3ccc3cccnc43)cc2c1 (centres unmarked)	-13.2
Cc1ccc(NC(=O)CCC(=O)NNS(=O)(=O)c2ccccc2)c(C)c1	18.4

Compound	hERG current change (%, negative = inhibition) at 10uM [%]
CCCC(=O)Nc1ccc2c(c1)nc1n2CCN(CCOC)C1	22.2
Cc1ccc(NC(=O)c2ccc(Cl)cc2Cl)cc1O	7.44
CCNC1CCS(=O)(=O)C1 (centres unmarked)	8.32
Cc1ccc(C)c(COC(=O)c2cc([N+](=O)[O-])ccc2N2CCOCC2)c1	5.73
CCCNC(=O)CSCc1nc(-c2ccc(SC)cc2)oc1C	-7.09
CC1CCN(C(=O)CCS(=O)(=O)c2cc3c(cc2Cl)NC(=O)CO3)CC1	-38.4
CC1=CC2/C=C(\C)CCC(O)C(O)/C=C/C(=O)C23C(=O)NC(CC(C)C)C3C1C (centres unmarked)	6.66
CNC(=O)CSc1cnc2ccccc2n1	-1.79
COc1ccc(/C=N/NC(=O)c2ccc(=O)[nH]n2)cc1OC	7.69
CC(=O)N1CCN(S(=O)(=O)c2cccc(C(=O)NC3CCCC3)c2)CC1	-3.65
Cc1ccc(OCC(=O)NC(=S)Nc2ccc(Br)c(C)n2)cc1	3.83
COCCCn1c(=O)c2ccccc2c2ccccc2c1=O	-9.39
Cc1ccc(C)c(NC(=O)COC(=O)CCc2ccc(S(=O)(=O)N3CCOCC3)cc2)c1	4.78
Cc1ccc(S(=O)(=O)N2CCCCCC2)cc1[N+](=O)[O-]	0.823
COc1ccc(OCCn2cc(/C=C(\C#N)C(=O)NCc3ccco3)c3ccccc32)cc1	15.5
CCCN[C@@H]1C(=O)N2C(C(=O)OCCC)=C(C)CS[C@H]12	5.12
COc1ccc(C(NC(=O)c2ccco2)c2ccc(OC)c(OC)c2)cc1 (centres unmarked)	-3.17
Cn1c(O)c(/C=C2\C=c3ccccc3=NC2=O)c(=O)n(C)c1=O	12.4
COc1cccc2[nH]c3c(N4CCC(C)CC4)ncnc3c12	-7.97
CC(C)C(c1nnnn1C1CCCC1)N1CCc2ccccc21 (centres unmarked)	5.61
Cc1cc(C)n2nc(CNS(=O)(=O)c3ccc(F)cc3)nc2n1	9.98
CCOC(=O)C1C(c2ccc(O)cc2)NC(=O)NC1(O)C(F)(F)F (centres unmarked)	2.48
O=C(O)c1ccc(/C=N/NC(=O)C2CC2(c2ccccc2)c2ccccc2)cc1 (centres unmarked)	17.9

Compound	hERG current change (%, negative = inhibition) at 10uM [%]
O=C(NOCc1ccccc1)c1ccc(Cl)cc1Cl	1.61
Cc1c(C(=O)Nc2ccccc2)sc2nc(-c3ccccc3)cn12	-4.89
CCc1cc(C(N)=O)c(NC(=O)c2ccc(OC)cc2)s1	-18.4
Cl.c1ccc(OCCOCCN2CCc3ccccc3C2)cc1	-42.8
COc1ccc(-c2cn[nH]c2-c2ccc(OCc3ccccc3F)cc2O)cc1OC	1.6
O=C(CCCCCNC(=S)Nc1ccc(Cl)cc1)C[N+](=O)[O-]	12.9
COc1ccc(N2CCn3c2nc2c3c(=O)n(CCCc3ccccc3)c(=O)n2C)c(OC)c1	-7.43
CN1CCN(NC(=S)NC2CCCCC2)CC1	-10.7
CN1C(=O)C(c2nnc(Nc3cccc4ccccc34)s2)C2CC1(C)Oc1ccccc12 (centres unmarked)	-9.11
FC(F)(F)c1ccccc1NC(=S)N1CCc2ccccc2C1	24.7
COc1ccccc1N1CCN(C(=O)c2cc(-c3cccc(Cl)c3)on2)CC1	-0.113
S=C(Nc1ccc(Br)cc1Cl)NC1CCN(Cc2ccccc2)CC1	-2.37
CS(=O)(=O)c1ccc2nc(NC(=O)C3COc4ccccc4O3)sc2c1 (centres unmarked)	-11.3
Cc1cc(C)cc(CN2C(=O)NC3(CCCCCC3)C2=O)c1	-2.88
Cc1ccc([N+](=O)[O-])cc1NC(=O)Cc1ccc(F)cc1	33.2
Fc1ccc(Cn2nnnc2CN2CCC(n3nnc4cc(C(F)(F)F)ccc43)CC2)cc1	-69.6
Cc1cccc(N2CCN(S(=O)(=O)c3cnc[nH]3)CC2)c1C	-5.35
CCOc1cc(CO)c(Br)cc1OCC(=O)O	2.88
CCCOC(=O)COC(=O)c1ccccc1NC(=O)c1ccccc1	13
Cc1ccc(C(C)NC(=O)Cn2nc(C)c([N+](=O)[O-])c2C)cc1 (centres unmarked)	-6.81
